Measured values reported in patent US20190359693A1.

B1: FM1W6 (Fc fusion)
chain: QVQLVESGGGVVQPGGSLRLSCAASISIFDIYAMDWYRQAPGKQRELVAVSFRDGSTYYADSVKGRFTISRDNSKNTLYLQMNSLRAEDTAVYYCHVSLYRDPLGVAGGIGVYWGQGTLVTVSSGGGGSGGGGSEVQLVESGGGLVQPGGSLRLSCAASGRTLSIYSMGWFRQAPGKEREFVATIGWNSGRTFYPDSVKGRFTISRDNSKNTLYLQMNSLRAEDTAVYYCAAAKGPLRLSSQADYWGQGTLVTVSSGGGGSGGGGSEVQLLESGGGLVQPGGSLRLSCAASGFTLENKAIGWFRQAPGKEREGVLCISKSGSWTYYADSVKGRFTISRDNSKNTVYLQMNSLRPEDTAVYYCATTTAGGGLCWDGTTFSRLASSWGQGTLVTVSSGGGGSGGGGSEVQLVESGGGLVQPGGSLRLSCAASGFTFSTSWMYWLRQAPGKGLEWVSVINTDGGTYYADSVKGRFTISRDNSKNTLYLQMNSLRAEDTAVYYCAKDWGGPEPTRGQGTLVTVSS[gap - human IgG1 Fc]
B2: FM1W4 (Fc fusion)
chain: QVQLVESGGGVVQPGGSLRLSCAASISIFDIYAMDWYRQAPGKQRELVAVSFRDGSTYYADSVKGRFTISRDNSKNTLYLQMNSLRAEDTAVYYCHVSLYRDPLGVAGGIGVYWGQGTLVTVSSGGGGSGGGGSEVQLLESGGGLVQPGGSLRLSCAASGRTYAMGWFRQAPGKEREFVAAINALGTRTYYADSVKGRFTISRDNSKNTLYLQMNSLRAEDTAVYYCTAQGQWRAAPVAVAAEYEFWGQGTLVTVSSGGGGSGGGGSEVQLLESGGGLVQPGGSLRLSCAASGFTLENKAIGWFRQAPGKEREGVLCISKSGSWTYYADSVKGRFTISRDNSKNTVYLQMNSLRPEDTAVYYCATTTAGGGLCWDGTTFSRLASSWGQGTLVTVSSGGGGSGGGGSEVQLVESGGGLVQPGGSLRLSCAASGFTFSTSWMYWLRQAPGKGLEWVSVINTDGGTYYADSVKGRFTISRDNSKNTLYLQMNSLRAEDTAVYYCAKDWGGPEPTRGQGTLVTVSS[gap - human IgG1 Fc]
B3: FM1B67.1 (Fc fusion)
chain 1: EVQLVESGGGLVQPGGSLRLSCAISGLSLDTYAVGWFRQAPGKEREGVSCISSGHGMTYYADSVKGRFTISTDNSKNTVYLQMNSLRAEDTAVYYCATESRYYCSDNWPAPQRYIYWGQGTLVTVSSGGGGSGGGGSEVQLVESGGGLVQPGGSLRLSCAASGFTFSTSWMYWLRQAPGKGLEWVSVINTDGGTYYADSVKGRFTISRDNSKNTLYLQMNSLRAEDTAVYYCAKDWGGPEPTRGQGTLVTVSSGGGGSGGGGSQVQLVESGGGVVQPGGSLRLSCAASISIFDIYAMDWYRQAPGKQRELVAVSFRDGSTYYADSVKGRFTISRDNSKNTLYLQMNSLRAEDTAVYYCHVSLYRDPLGVAGGIGVYWGQGTLVTVSSGGGGSGGGGSEVQLVESGGGLVQPGGSLRLSCAASGRTLSIYSMGWFRQAPGKEREFVATIGWNSGRTFYPDSVKGRFTISRDNSKNTLYLQMNSLRAEDTAVYYCAAAKGPLRLSSQADYWGQGTLVTVSS[gap - human IgG1 Fc]
chain 2: QVQLVESGGGVVQPGGSLRLSCAASISIFDIYAMDWYRQAPGKQRELVAVSFRDGSTYYADSVKGRFTISRDNSKNTLYLQMNSLRAEDTAVYYCHVSLYRDPLGVAGGIGVYWGQGTLVTVSSGGGGSGGGGSEVQLLESGGGLVQPGGSLRLSCAASGRTYAMGWFRQAPGKEREFVAAINALGTRTYYADSVKGRFTISRDNSKNTLYLQMNSLRAEDTAVYYCTAQGQWRAAPVAVAAEYEFWGQGTLVTVSS[gap - human IgG1 Fc with K409R (EU numbers)]
B4: FM1B68.1 (Fc fusion)
chain 1: EVQLVESGGGLVQPGGSLRLSCAASGFTFSTSWMYWLRQAPGKGLEWVSVINTDGGTYYADSVKGRFTISRDNSKNTLYLQMNSLRAEDTAVYYCAKDWGGPEPTRGQGTLVTVSSGGGGSGGGGSEVQLLESGGGLVQPGGSLRLSCAASGFTLENKAIGWFRQAPGKEREGVLCISKSGSWTYYADSVKGRFTISRDNSKNTVYLQMNSLRPEDTAVYYCATTTAGGGLCWDGTTFSRLASSWGQGTLVTVSS[gap - human IgG1 Fc with changes]
chain 2: B3 chain 2
B5: FM1W8 (Fc fusion)
chain: QVQLVESGGGVVQPGGSLRLSCAASISIFDIYAMDWYRQAPGKQRELVAVSFRDGSTYYADSVKGRFTISRDNSKNTLYLQMNSLRAEDTAVYYCHVSLYRDPLGVAGGIGVYWGQGTLVTVSSGGGGSGGGGSEVQLVESGGGLVQPGGSLRLSCAASGRTLSIYSMGWFRQAPGKEREFVATIGWNSGRTFYPDSVKGRFTISRDNSKNTLYLQMNSLRAEDTAVYYCAAAKGPLRLSSQADYWGQGTLVTVSSGGGGSGGGGSEVQLVESGGGLVQPGGSLRLSCAISGLSLDTYAVGWFRQAPGKEREGVSCISSGHGMTYYADSVKGRFTISTDNSKNTVYLQMNSLRAEDTAVYYCATESRYYCSDNWPAPQRYIYWGQGTLVTVSSGGGGSGGGGSEVQLVESGGGLVQPGGSLRLSCAASGFTFSTSWMYWLRQAPGKGLEWVSVINTDGGTYYADSVKGRFTISRDNSKNTLYLQMNSLRAEDTAVYYCAKDWGGPEPTRGQGTLVTVSS[gap - human IgG1 Fc]
B6: FM1W5 (Fc fusion)
chain: EVQLLESGGGLVQPGGSLRLSCAASGFTLENKAIGWFRQAPGKEREGVLCISKSGSWTYYADSVKGRFTISRDNSKNTVYLQMNSLRPEDTAVYYCATTTAGGGLCWDGTTFSRLASSWGQGTLVTVSSGGGGSGGGGSQVQLVESGGGVVQPGGSLRLSCAASISIFDIYAMDWYRQAPGKQRELVAVSFRDGSTYYADSVKGRFTISRDNSKNTLYLQMNSLRAEDTAVYYCHVSLYRDPLGVAGGIGVYWGQGTLVTVSSGGGGSGGGGSEVQLVESGGGLVQPGGSLRLSCAASGFTFSTSWMYWLRQAPGKGLEWVSVINTDGGTYYADSVKGRFTISRDNSKNTLYLQMNSLRAEDTAVYYCAKDWGGPEPTRGQGTLVTVSSGGGGSGGGGSEVQLLESGGGLVQPGGSLRLSCAASGRTYAMGWFRQAPGKEREFVAAINALGTRTYYADSVKGRFTISRDNSKNTLYLQMNSLRAEDTAVYYCTAQGQWRAAPVAVAAEYEFWGQGTLVTVSS[gap - human IgG1 Fc]
B7: FM1B69.1 (Fc fusion)
chain 1: EVQLLESGGGLVQPGGSLRLSCAASGFTLENKAIGWFRQAPGKEREGVLCISKSGSWTYYADSVKGRFTISRDNSKNTVYLQMNSLRPEDTAVYYCATTTAGGGLCWDGTTFSRLASSWGQGTLVTVSSGGGGSGGGGSEVQLVESGGGLVQPGGSLRLSCAASGFTFSTSWMYWLRQAPGKGLEWVSVINTDGGTYYADSVKGRFTISRDNSKNTLYLQMNSLRAEDTAVYYCAKDWGGPEPTRGQGTLVTVSS[gap - human IgG1 Fc with changes]
chain 2: EVQLVESGGGLVQPGGSLRLSCAISGLSLDTYAVGWFRQAPGKEREGVSCISSGHGMTYYADSVKGRFTISTDNSKNTVYLQMNSLRAEDTAVYYCATESRYYCSDNWPAPQRYIYWGQGTLVTVSSGGGGSGGGGSEVQLVESGGGLVQPGGSLRLSCAASGFTFSTSWMYWLRQAPGKGLEWVSVINTDGGTYYADSVKGRFTISRDNSKNTLYLQMNSLRAEDTAVYYCAKDWGGPEPTRGQGTLVTVSS[gap - human IgG1 Fc with changes]
B8: FM1W7 (Fc fusion)
chain: EVQLVESGGGLVQPGGSLRLSCAASGRTLSIYSMGWFRQAPGKEREFVATIGWNSGRTFYPDSVKGRFTISRDNSKNTLYLQMNSLRAEDTAVYYCAAAKGPLRLSSQADYWGQGTLVTVSSGGGGSGGGGSQVQLVESGGGVVQPGGSLRLSCAASISIFDIYAMDWYRQAPGKQRELVAVSFRDGSTYYADSVKGRFTISRDNSKNTLYLQMNSLRAEDTAVYYCHVSLYRDPLGVAGGIGVYWGQGTLVTVSSGGGGSGGGGSEVQLVESGGGLVQPGGSLRLSCAASGFTFSTSWMYWLRQAPGKGLEWVSVINTDGGTYYADSVKGRFTISRDNSKNTLYLQMNSLRAEDTAVYYCAKDWGGPEPTRGQGTLVTVSSGGGGSGGGGSEVQLLESGGGLVQPGGSLRLSCAASGFTLENKAIGWFRQAPGKEREGVLCISKSGSWTYYADSVKGRFTISRDNSKNTVYLQMNSLRPEDTAVYYCATTTAGGGLCWDGTTFSRLASSWGQGTLVTVSS[gap - human IgG1 Fc]

target: hemagglutinin (HA) of influenza B/Brisbane/60/08 (Victoria lineage) (influenza B virus B/Brisbane/60/08); test: cell-based or functional assay

B1 and B2 are the same in Average neutralization titers: 8 nM for the first, 8 nM for the second.

First: B3
Second: B4
The Average neutralization titers of the first is 1.5-fold lower: 4 nM for the first, 6 nM for the second.

First: B5
Second: B6
The Average neutralization titers of the first is 2.5-fold lower: 4 nM for the first, 10 nM for the second.

First: B7
Second: B8
The Average neutralization titers of the first is 5.3-fold lower: 3 nM for the first, 16 nM for the second.

target: hemagglutinin (HA) of influenza A/New Caledonia/20/99 (H1N1) (influenza A virus A/New Caledonia/20/99 (H1N1)); test: cell-based or functional assay

B1 and B2 are within 1.5-fold of each other in Average neutralization titers: 40 nM for the first, 32 nM for the second.

B3 and B4 are the same in Average neutralization titers: 6 nM for the first, 6 nM for the second.

Compared with B5, B6 is 6.7-fold lower in Average neutralization titers: 40 nM for the first, 6 nM for the second.

B7 and B8 are within 1.5-fold of each other in Average neutralization titers: 6 nM for the first, 5 nM for the second.

target: hemagglutinin (HA) of influenza B/Harbin/7/94 (Yamagata lineage) (influenza B virus B/Harbin/7/94); test: cell-based or functional assay

B1 and B2 are the same in Average neutralization titers: 6 nM for the first, 6 nM for the second.

B3 and B4 are the same in Average neutralization titers: 6 nM for the first, 6 nM for the second.

First: B5
Second: B6
The Average neutralization titers of the first is 3.3-fold lower: 3 nM for the first, 10 nM for the second.

B7 and B8 are the same in Average neutralization titers: 6 nM for the first, 6 nM for the second.

target: hemagglutinin (HA) of influenza A/Brisbane/10/07 (H3N2) (influenza A virus A/Brisbane/10/07 (H3N2)); test: cell-based or functional assay

Going from B1 to B2, the Average neutralization titers rises from 16 nM to 40 nM (2.5-fold).

B3 and B4 are the same in Average neutralization titers: 16 nM for the first, 16 nM for the second.

First: B5
Second: B6
The Average neutralization titers of the first is 2.5-fold higher: 40 nM for the first, 16 nM for the second.

Going from B7 to B8, the Average neutralization titers falls from 26 nM to 10 nM (2.6-fold).

target: hemagglutinin (HA) of influenza A/Vietnam/1194/04 (H5N1) (influenza A virus A/Vietnam/1194/04 (H5N1)); test: cell-based or functional assay

B1 and B2 are the same in Average neutralization titers: 32 nM for the first, 32 nM for the second.

B3 and B4 are the same in Average neutralization titers: 16 nM for the first, 16 nM for the second.

Going from B5 to B6, the Average neutralization titers falls from 40 nM to 8 nM (5-fold).

B7 and B8 are within 1.5-fold of each other in Average neutralization titers: 16 nM for the first, 13 nM for the second.
